Measurements as given in PMC4336329 (PLoS ONE, 2015).
Out of some 310,000 compounds screened, about 14,000 (4.5%) showed an effect of 50% or more. Effects have a minus sign here. This is one part of the list.

target: human ether-à-go-go-related gene (hERG) potassium channel (human, UniProt Q12809); assay: primary screen, population patch clamp on CHO cells stably expressing hERG
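Further: peak tail current of the secondary pulse compared with the same well before compound.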

Sequence of human ether-à-go-go-related gene (hERG) potassium channel (Q12809 whole entry, looked up): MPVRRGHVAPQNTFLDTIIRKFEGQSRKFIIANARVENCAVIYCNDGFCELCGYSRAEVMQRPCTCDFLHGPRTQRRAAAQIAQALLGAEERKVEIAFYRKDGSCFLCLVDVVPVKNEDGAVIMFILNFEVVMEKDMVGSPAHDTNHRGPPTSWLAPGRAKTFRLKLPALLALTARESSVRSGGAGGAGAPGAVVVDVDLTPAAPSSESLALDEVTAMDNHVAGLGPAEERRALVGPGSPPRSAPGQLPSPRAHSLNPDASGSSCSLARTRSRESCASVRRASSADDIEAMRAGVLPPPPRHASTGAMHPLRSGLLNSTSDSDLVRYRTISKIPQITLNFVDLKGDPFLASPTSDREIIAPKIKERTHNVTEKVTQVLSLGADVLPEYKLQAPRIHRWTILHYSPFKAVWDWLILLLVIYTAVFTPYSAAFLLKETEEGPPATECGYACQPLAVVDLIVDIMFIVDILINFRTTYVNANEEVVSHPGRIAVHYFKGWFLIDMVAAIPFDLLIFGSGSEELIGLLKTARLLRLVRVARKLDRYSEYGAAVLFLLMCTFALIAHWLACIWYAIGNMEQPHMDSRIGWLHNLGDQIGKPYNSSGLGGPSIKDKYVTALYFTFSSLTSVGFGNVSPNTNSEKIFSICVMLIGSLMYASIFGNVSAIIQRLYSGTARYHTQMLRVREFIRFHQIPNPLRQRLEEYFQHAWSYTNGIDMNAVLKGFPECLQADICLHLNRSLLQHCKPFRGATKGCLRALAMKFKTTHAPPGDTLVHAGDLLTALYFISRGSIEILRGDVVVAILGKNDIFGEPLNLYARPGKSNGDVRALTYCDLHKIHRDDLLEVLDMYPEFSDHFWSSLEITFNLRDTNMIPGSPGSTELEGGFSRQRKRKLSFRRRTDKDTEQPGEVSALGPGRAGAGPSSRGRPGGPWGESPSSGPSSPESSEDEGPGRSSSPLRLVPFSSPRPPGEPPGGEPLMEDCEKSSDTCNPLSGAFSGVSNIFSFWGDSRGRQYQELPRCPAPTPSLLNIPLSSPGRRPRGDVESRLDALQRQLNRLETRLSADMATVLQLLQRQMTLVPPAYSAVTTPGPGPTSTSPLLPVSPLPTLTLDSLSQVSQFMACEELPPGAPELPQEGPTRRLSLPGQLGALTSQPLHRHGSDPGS

| SMILES | hERG current change (%, negative = inhibition) at 10uM |
| --- | --- |
| COc1ccc(Br)cc1/C=N/NC(=O)CNC(=O)c1cccnc1 | 14.8% |
| S=C1NC(c2ccccc2)=NCN1c1ccc(Cl)cc1 | -3.17% |
| O=C(CN1C(=O)C2CC=CCC2C1=O)NCc1ccc2c(c1)OCO2 (centres unmarked) | 11.2% |
| COc1cccc(C(=O)c2c[nH]c(C(=O)NCc3ccco3)c2)c1 | -8.61% |
| S=c1[nH]nc(-c2cccc(Cl)c2)n1Cc1ccccc1 | 5.13% |
| Cc1nn(-c2ccccc2)c(C)c1/C=N/n1c(-c2ccncc2)n[nH]c1=S | 19.3% |
| Clc1cccc(NCc2nnc3n2CCCCC3)c1 | 4.14% |
| CCOC(=O)c1cc(NC(=O)CSCCO)ccc1Cl | -9% |
| NNC(=O)c1ccccc1-n1cccc1 | 3.25% |
| CC(=O)Nc1ccc(NC(=O)C(C)OC(=O)CN(C)S(=O)(=O)c2ccc(Cl)cc2)cc1 (centres unmarked) | 6.49% |
| CCN(CC)C(=O)CSc1nc(OC)cc(=O)[nH]1 | -19.5% |
| Cc1cc(NC(=O)CSCC(=O)Nc2cccc(S(=O)(=O)N3CCCCCC3)c2)no1 | -23.5% |
| COc1ccc(NS(=O)(=O)c2ccc3c(c2)N(C(C)=O)CCS3)cc1 | 6.97% |
| CC1(C)N([O-])C(c2cccs2)=C[N+]1=O | -7.12% |
| COc1cc(C(=O)OC(C)C(=O)NCC2CCCCC2)cc(NC(=O)c2ccco2)c1OC (centres unmarked) | 8.29% |
| COc1ccc(NC(=O)CSC2CC(=O)N(c3ccc4c(c3)OCCO4)C2=O)cc1 (centres unmarked) | 4.54% |
| O=c1[nH]c2cc3c(cc2cc1CN(CCO)S(=O)(=O)c1ccccc1)OCCO3 | -19% |
| Cc1c(NC(=O)COC(=O)/C=C/c2cccc(Cl)c2)c(=O)n(-c2ccccc2)n1C | -58.7% |
| COc1ccccc1NS(=O)(=O)c1ccc(N2CCOCC2)c(NC(=O)c2ccco2)c1 | -2.73% |
| O=C(O)CSc1c(-c2cccs2)[nH]c2ccccc12 | 1.69% |
| Cc1ccccc1Cn1ccc(-c2ccc(Cl)cc2)c(C#N)c1=O | -23.2% |
| CCO[C@@H]1OC(C(=O)N2CCN(Cc3ccccc3)CC2)=C[C@H](c2ccc(Br)cc2)[C@H]1CCCO | -27.2% |
| CC(=O)N(C)c1ccc(OCC(O)CN(Cc2ccco2)S(=O)(=O)c2ccc(C)cc2)cc1 (centres unmarked) | -34.7% |

| SMILES | hERG current change (%, negative = inhibition) at 10uM |
| --- | --- |
| CC(C)(C)C(=O)CSc1ccc(S(=O)(=O)N2CCCC2)cn1 | -4.91% |
| CNC(=S)NC1CC2CCC(C1)N2Cc1ccccc1 (centres unmarked) | -16.5% |
| Cc1ccc(OCC(=O)NCCCNC(=O)c2ccco2)cc1C | 14.6% |
| Cn1ccc(NC(=O)Nc2cccc(C(F)(F)F)c2)n1 | -23% |
| CCN(CC)S(=O)(=O)c1ccc(Cl)c(NC(=O)c2ccncc2)c1 | -49.9% |
| Cc1cc(=O)oc2cc(OCC(=O)c3ccccc3)ccc12 | 10.9% |
| CC1(C)Cc2c(sc(NC(=O)Nc3ccccc3)c2C(N)=O)CO1 | 12.9% |
| CCn1c(=O)c2ccccc2n(Cc2ccccc2C)c1=O | -4.05% |
| COc1cc(C2C(C#N)=C(N)OC3=C2C(=O)CC(C)(C)C3)cc([N+](=O)[O-])c1O (centres unmarked) | -11.2% |
| COc1ccc2[nH]c(=O)c(CN(Cc3nnnn3Cc3ccco3)C3CCCCC3)cc2c1 | -24.9% |
| CC(=O)Nc1ccc(NC(=O)c2ccccc2N(C)S(=O)(=O)c2ccccc2)cc1 | 24.3% |
| Cc1ccc(C(=O)CSC2=C(C#N)C(c3ccco3)C3=C(CCCC3=O)N2)cc1 (centres unmarked) | -15.8% |
| COc1ccc2oc(C(=O)NN3C(C)CCCC3C)c(C)c2c1 (centres unmarked) | 16.1% |
| CCN1CCN(C(=O)CCc2ccc(S(=O)(=O)NCCc3ccccc3)cc2)CC1 | -2.7% |
| CC(NC(=O)c1ccc(C(C)(C)C)cc1)C(c1cccs1)N1CCOCC1 (centres unmarked) | -1.51% |
| CC(C)c1nnc(NC(=O)CCC2CCCCC2)s1 | 17.4% |
| COc1cc2c(cc1O)CCN(C(=O)CSc1nncn1C)[C@@H]2C | 11.5% |
| Cc1nnc(NC(=O)CN2CCN(Cc3ccc(F)cc3Cl)CC2)s1 | 8.45% |
| CCOc1ccccc1NC(=O)N1CCCC1C(=O)Nc1ccc(-n2cnnn2)c(C)c1 (centres unmarked) | -26.8% |
| COC(=O)c1onc(C(=O)c2ccccc2)c1C(=O)OC | 8.73% |
| COc1ccc(S(=O)(=O)N2CCc3ccccc32)cc1C(=O)OCc1c(C)noc1C | -6.18% |
| C/C(N)=N\S(=O)(=O)c1ccc(Cl)cc1 | 6.53% |
| Cn1cc(C(=O)c2cccc(Cl)c2)cc1/C=N\O | -28% |

| SMILES | hERG current change (%, negative = inhibition) at 10uM |
| --- | --- |
| COc1ccccc1CNC(=S)Nc1ccc(F)cc1 | 6.39% |
| Cc1ccc(NC(=O)CSc2nnc(-c3ccccn3)n2N)c(Br)c1 | -16.1% |
| Cc1ccc(S(=O)(=O)N2CCCCC2CCNC(=O)C(=O)NCc2cccnc2)cc1 (centres unmarked) | -22.7% |
| O=C(CC1CS(=O)(=O)CC1CC(=O)Oc1ccccc1F)Oc1ccccc1F (centres unmarked) | 1.91% |
| COc1ccc(NC(=S)N2CCN(c3ccc([N+](=O)[O-])cc3)CC2)cc1OC | -77.3% |
| CCCCn1c(N)c(N(CC(C)C)C(=O)c2ccc(-c3ccc(C(C)=O)cc3)o2)c(=O)[nH]c1=O | 6.68% |
| CCn1c(CC(=O)Nc2ccc(F)cc2)nnc1SCC(=O)NC1=NCCS1 | 7.98% |
| CC(=O)Nc1ccc(C(=O)OC2CCOC2=O)cc1 (centres unmarked) | 12.5% |
| Cn1c(CO)nc2c3ccccc3ccc21 | 10.6% |
| CCCCN(C(=O)c1ccccc1OCc1ccc(F)cc1)c1c(N)n(CCC)c(=O)[nH]c1=O | 17.1% |
| COc1ccc(OCC(=O)Nc2nnc(S(=O)(=O)N3CCCCCC3)s2)cc1 | 12.3% |
| CCOc1ccc2nc(NC(=O)c3c([N+](=O)[O-])cnn3CC)sc2c1 | 2.81% |
| Cc1ccc(NC(=O)C(=O)NCCCN2CC(C(=O)O)CC2=O)cc1 (centres unmarked) | 17.2% |
| Cc1cc(C)c(C)c(OCCN2CCOCC2)c1 | 1.23% |
| COc1cccc(-c2ncc3ccccc3c2COC(=O)N(C)C)c1 | -3.98% |
| CCN(CC)C(=O)NCc1c(C)cc(C)cc1C | 8.98% |
| O=C(Cn1nnc2ccccc21)Nc1ccc([N+](=O)[O-])cc1 | 12.7% |
| COc1ccccc1NC(=O)c1sc2nc(C)cc(C)c2c1N | 5.36% |
| Cl.O=C(Nc1ccc(N2CCN(Cc3ccccc3F)CC2)cc1)c1ccccc1[N+](=O)[O-] | 8% |
| CCC(C)Nc1cc(C)c(C#N)c2nc3ccccc3n12 (centres unmarked) | -39.4% |
| CCCc1cc(=O)[nH]c(SCc2nc3ccccc3s2)n1 | -3.71% |
| O=C(Cn1cnc(S(=O)(=O)N2CCCC2)c1)Nc1ccccc1 | 11.7% |
| Cc1ccc2oc(C(=O)Nc3cc(C)on3)c(C)c2c1 | -1.98% |

| SMILES | hERG current change (%, negative = inhibition) at 10uM |
| --- | --- |
| CCN(CC)S(=O)(=O)c1cccc(-c2nnc(SCc3nc4ccccc4s3)o2)c1 | -3.82% |
| COC(=O)c1ccc(N2CCN(C)CC2)c(NC(=O)c2ccc(-c3ccc(Cl)cc3)o2)c1 | 7.11% |
| COc1ccc2ccccc2c1CN(C)Cc1ccccc1.O=C(O)C(=O)O | -51.7% |
| COC(=O)c1nc(N)sc1C | 9.83% |
| Cc1cc(C)c(S(=O)(=O)N2CCCC(C(=O)NC3CC3)C2)c(C)c1 (centres unmarked) | -47.2% |
| O=c1oc2ccccc2c(N2CCC(c3ccccc3)CC2)c1[N+](=O)[O-] | -3.83% |
| O=c1oc(-c2cccc(Cl)c2)nc2c1cnn2-c1ccccc1 | 3.11% |
| COc1cc([N+](=O)[O-])ccc1NC(=O)CSc1nncn1-c1cccnc1 | -10.5% |
| COc1cc(NC(=O)c2ccc(C)cc2)c(OC)cc1NC(=O)CN1CCOCC1 | -11.9% |
| C[C@]12CC[C@H]3C(CCC4(O)CC(O)CC[C@]34C=O)C1=CC[C@H]2c1ccc(=O)oc1 (some centres unmarked) | 12.4% |
| O=S(=O)(Nc1cc(Cl)cc(Cl)c1)N1CCOCC1 | 3.6% |
| Cc1cnc(C(=O)NC(Cc2ccccc2)c2ccccc2)cn1 (centres unmarked) | 0.29% |
| Cn1c(=O)nc2n(Cc3ccccc3)c3ccccc3cc-2c1=O | -1.36% |
| O=C(CCN1CCN(c2ccccc2)CC1)NNC(=O)Cc1ccccc1Cl | 5.76% |
| CC(C)c1ccc(/C=C/C(=O)Nc2nc3ccc([N+](=O)[O-])cc3s2)cc1 | -6.32% |
| CCOC(=O)c1c(C)c(P(=S)(N2CCOCC2)N2CCOCC2)n(C)c1C | -11.7% |
| O=C(CN1C(=O)NC2(CCCCCC2)C1=O)NCCc1ccc(F)cc1 | -13% |
| COc1ccc(Cn2ccnc2)cc1[N+](=O)[O-] | -0.186% |
| O=C(NC1CC1)C1CCN(C2CCN(C(=O)/C=C/c3cccs3)CC2)CC1 | -34.4% |
| Cc1cc(C(=O)N2CCCC(Nc3ccc(F)cc3)C2)n(C)n1 (centres unmarked) | 9.51% |
